According to ChEMBL document CHEMBL4888484, “Replenishing the malaria drug discovery pipeline: Screening and hit evaluation of the MMV Hit Generation Library 1 (HGL1) against asexual blood stage Plasmodium falciparum ,using a nano luciferase reporter read-out” (2022):
In all, about 150,000 compounds went through this assay and about 540 (0.36%) showed an effect of 50% or more. Some of the results follow.

What follows are compounds tested on Plasmodium falciparum (assay: Primary screen in NF54 nanoGlo assay, in single point, at 2uM, 72h; a lower Z score goes with more inhibition). Conditions: timepoint 72 hour.
Format: functional, Erythrocyte

Row | SMILES | % Inhibition | Z score
1 | N#Cc1c[nH]c(C(=O)N2CCN(Cc3cccnc3N)C[C@H](O)C2)c1 | -7% | 0.72
2 | O=C(NCC1CCN(C(=O)c2ccco2)CC1)c1ccoc1 | -4% | 0.75
3 | Cc1noc(C)c1S(=O)(=O)N1CCc2ccccc2C1 | 8% | -1.04
4 | CC1=NN(S(=O)(=O)c2c(C)nn(C)c2C)[C@@](O)(C(F)(F)F)C1 | -6% | 0.88
5 | CC[C@@H](CNC(=O)c1cccc(-n2cnnn2)c1)N1CCCC1 | -2% | 0.41
6 | Cc1cc(C(=O)[C@@H](C#N)C(=O)c2c[nH]c3cc(Cl)ccc23)nn1C | 3% | -0.47
7 | CCOCCCNC(=O)c1cc(CC)n[nH]1 | -11% | 2.14
8 | COc1cc(C(=O)O[C@@H](C)c2nc(C)no2)ccc1C | -9% | 1.31
9 | CC(NC(=O)N(C)CC(O)C1CC1)c1ccc(F)cc1Cl (stereo not given) | -5% | 0.45
10 | NC(=O)c1cccnc1N1CCN(Cc2ccc3c(c2)OCO3)C(=O)C1 | -13% | 2.15
11 | Cc1nc([C@H](C)NC(=O)CCC(=O)Nc2cccc(O)c2)n[nH]1 | -7% | 1.08
12 | O=C(Cn1cc(OCc2ccccc2)c(=O)cc1CO)Nc1ccc2c(c1)OCO2 | -3% | 0.37
13 | COc1cc(OC)c(C(=O)N2CC(O)(c3ccccc3)C2)cc1OC | -2% | 0.27
14 | Cc1ccccc1C(=O)N1C(C(=O)NCC2CCCO2)COC12CCN(C(=O)c1ccccc1F)CC2 (stereo not given) | -3% | 0.3
15 | O[C@@H]1CCN(Cc2nc3cc(Br)ccc3[nH]2)C1 | -7% | 0.97
16 | Cc1cc(=O)[nH]c(N2CCC(NC(=O)CC3CCCCC3C)C2)n1 (stereo not given) | -6% | 1.25
17 | Cc1csc([C@H](C)NCc2ccc(F)c(C#N)c2)n1 | 1% | -0.09
18 | COC[C@H](NC(=O)c1ccn2c(C)cnc2c1)c1ccco1 | 0% | -0.02
19 | O=C(c1cc2ccccc2[nH]1)N1C2CCC1CC(=C1CC1)C2 | 10% | -1.34
20 | c1ccc2c(c1)CCO[C@H]2Cn1ccnc1-c1cn(C2CCNCC2)nn1 | -7% | 1.38
21 | C[C@H]1COCCN1C1CCN(c2ccc(S(=O)(=O)C(F)F)cc2)CC1 | -4% | 0.62
22 | COCc1nc(OC)cc(N2CC3(C[C@H](O)CNC3=O)C2)n1 | 3% | -0.44

Row | SMILES | % Inhibition | Z score
23 | COc1ccc(C(=O)NCCCc2nnc3ccccn23)o1 | -9% | 1.7
24 | CN=C(NCCOC)NCc1cccc(C(F)(F)F)c1 | 2% | -0.32
25 | CCCn1ccnc1CN1CCN(Cc2ccc3c(c2)OCO3)C(=O)C1 | 0% | 0
26 | COCCNC(=O)[C@@H]1Cn2c(n[nH]c2=O)CN1C(=O)CCCc1ccccc1 | -14% | 1.69
27 | Cc1cnn(CCC(=O)N2CC(=O)N(CC3CC3)C2)c1 | -9% | 1.73
28 | CCOC1CC(NC(=O)NC2CCC(=O)NC23CCC3)C12CCC2 (stereo not given) | 3% | -0.37
29 | O=C(c1ccc(OC2CCN(C3CCCCCC3)CC2)cc1)N1CCCCC1 | -11% | 1.45
30 | CCc1ccc(S(=O)(=O)Oc2ccc3c(c2)CCC(=O)N3)cc1 | -10% | 1.39
31 | NC(=O)c1ccc(C(=O)N2CC3CN(c4ccccc4)CC3C2)cc1 (stereo not given) | -18% | 2.4
32 | O=C(N[C@H]1CS(=O)(=O)c2ccccc21)c1cc2ccccc2[nH]1 | -12% | 1
33 | COc1cccc(NCc2ccn(C)n2)n1 | -14% | 1.7
34 | CCOc1ccc(C(=O)NCCN2CCN(S(=O)(=O)c3ccccc3)CC2)cc1 | -15% | 1.8
35 | CS(=O)(=O)N[C@H]1CCN2C(=O)c3cc(-c4ccc(Cl)cc4)ccc3NC(=O)[C@@H]2C1 | 26% | -2.94
36 | OC[C@H](NCC1CC=CC1)c1ccc(F)cc1F | -9% | 0.92
37 | Cc1ccc(-n2cnc3c2CCN(c2nc4c(cc2C#N)COCC4)C3)cc1 | 0% | -0.03
38 | Cc1ccc(C2=NOC3(CCN(C(=O)Cc4ccccc4C)CC3)N2)cc1 | -18% | 2.17
39 | Cn1nccc1CC(=O)N1CCCc2ccc(F)c(Cl)c21 | -10% | 1.37
40 | Cc1nonc1CNC(=O)CCC(=O)N1CCCCCC1 | -7% | 0.93
41 | CC1COC(c2ccccc2)C(C)N1C(=O)c1cnc2ccccc2n1 (stereo not given) | -12% | 1.09
42 | CNS(=O)(=O)C[C@H]1CCCN1C(=O)CCc1ccco1 | -14% | 2.04
43 | CCOC(=O)c1cc(NC(=O)N2CCOCC2)c(C)nc1C | 9% | -1.05
44 | CCOC(=O)CCN(C(=O)COc1c(C)cccc1C)[C@@H](C)CC | -9% | 1.18

Row | SMILES | % Inhibition | Z score
45 | CC(c1ccncc1)N(C)S(=O)(=O)C[C@H]1C[C@H]2CCCC[C@H]21 (stereo not given in full) | -16% | 2.43
46 | OC[C@@H]1CCCN1Cc1csc(-c2ccc(Br)cc2)n1 | -2% | 0.39
47 | FC(F)(F)c1cnccc1NCc1nc2c([nH]1)CCCC2 | -3% | 0.49
48 | Cc1ccc(C2CN(Cc3cccs3)CC2CN(C(=O)c2ccccc2)C(C)C)cc1 (stereo not given) | -1% | 0.12
49 | O=C(COc1cccc(Br)c1)NCC(=O)NC1CC1 | -7% | 0.6
50 | O=C(Nc1ccnn1CC1CC1)c1cc(C2CC2)[nH]n1 | 3% | -0.38
51 | CCN=C(NCc1nncn1C)NC[C@H](C)c1ccc(F)c(F)c1 | -10% | 1.32
52 | Cc1csc(CN(C)C(=O)CCc2nncn2C)n1 | 0% | -0.04
53 | CN(C)c1cccc(Cn2cnc3cn(C)nc3c2=O)c1 | -6% | 1.14
54 | Cc1ccc(S(=O)(=O)N(CC(=O)NCCN2CCOCC2)c2cccc(Cl)c2)cc1 | 24% | -2.66
55 | Cn1cc(-c2nsc(NC(=O)c3cn(C)nc3C(F)F)n2)cn1 | -9% | 1.15
56 | Cc1cccc2nc(CN[C@@H](C)c3ccncc3F)cc(=O)n12 | -8% | 1.51
57 | C[C@@H](CN1CC2(CCN(CCC(N)=O)CC2)OC1=O)c1ccccc1 | -23% | 2.3
58 | CC(C)CNC(=O)[C@H]1CCN(c2cnn(Cc3ccccc3)c(=O)c2)C1 | -1% | 0.09
59 | COc1cc(OC)c2ncc(C#N)c(N3CCN[C@@H](CO)C3)c2c1 | -4% | 0.61
60 | CN(Cc1ncc(C(C)(C)C)o1)c1ccccc1F | -4% | 0.42
61 | Cc1ccc(C)c(S(=O)(=O)NCCNC(=O)Cc2ccoc2)c1 | -5% | 0.64
62 | CCn1ncnc1CN1C[C@H]2C[C@H](c3ccccc3)CC[C@@]2(C(=O)O)C1 | -14% | 2.57
63 | Cc1cc(N2CCN(S(=O)(=O)c3ccc(Cl)cc3)CC2)nc(N2CCOCC2)n1 | -3% | 0.31
64 | O=C(CC1CC2CCC1C2)NCCn1ccnn1 (stereo not given) | 25% | -2.92
65 | Cc1nc(NCc2csc(C(C)(C)C)n2)n(C)n1 | -9% | 1.63
66 | CCCC(=O)N1CCCCC1C(=O)N1CCC(n2cc(C)cn2)C1 (stereo not given) | -13% | 1.34

Row | SMILES | % Inhibition | Z score
67 | O=C(CN1CCN(C(=O)Nc2ccc(Cl)cc2)CC1=O)NCc1ccccc1 | 1% | -0.11
68 | CS(=O)(=O)N1CC[C@H](c2nc3cc(F)ccc3[nH]2)C1 | 31% | -3.55
69 | Brc1ccc(-c2nnc(-c3ccc(Br)cc3)c3nocc23)cc1 | 31% | -3.99
70 | CN(Cc1ccccc1)[C@H]1CCOC2(CCN(C(=O)Cc3ccccc3)CC2)C1 | -8% | 1.1
71 | O=C(C[C@H](c1ccc(C(F)(F)F)cc1)c1c[nH]c2ccccc12)Nc1cc(C(F)(F)F)cc(C(F)(F)F)c1 | -10% | 0.95
72 | O=C(Nc1nc2[nH]c(-c3ccccc3)cc(=O)n2n1)c1ccccc1F | 7% | -1.2
73 | C/C=C/Cc1nc(C2CCOCC2)n[nH]1 | -1% | 0.16
74 | CC(C)c1nc(C(=O)N[C@@H](C)C(N)=O)cs1 | -9% | 1.83
75 | Cc1ccc(S(=O)(=O)N(C)CC2(O)CCCC2)s1 | -13% | 1.96
76 | CC(C)[C@H]1C(=O)NCCN1Cc1ccn(C2CCCC2)n1 | -12% | 1.17
77 | CCOCCCN=C(NCCOC)NCc1ccc(COC)cc1 | -8% | 1.11
78 | O=C(CS(=O)(=O)CC(=O)c1ccc2c(c1)NC(=O)CO2)Nc1ccccc1 | -2% | 0.28
79 | CC(c1cc(F)ccc1F)N1CC[C@H](O)C1 (stereo not given in full) | -7% | 0.84
80 | CCCOc1ccc([C@H](C)NC(=O)N(C)CC2(C)COC2)cc1 | -11% | 1.47
81 | CN(CC1CCOCC1)C(=O)NCc1cc(-c2cccc(Cl)c2)no1 | -11% | 2.02
82 | COc1cccc(N(CC(=O)Nc2ccc(OC(F)(F)F)cc2)c2nc3ccccc3s2)c1 | -12% | 1.84
83 | CCCNC(=O)N1CCCN(c2nc(C)nc3c2c(C)nn3-c2ccccc2Cl)CC1 | -8% | 0.77
84 | CCC(=O)N1CCc2[nH]cnc2C12CCN(C(=O)CCc1scnc1C)CC2 | 1% | -0.18
85 | CCOCCCNC(=O)C1CCN(c2nnc(C)c3c(C)n(-c4ccc(Cl)cc4)nc23)CC1 | 10% | -1.13
